Assays:
monkey PBMCs = assay: T cell proliferation assay, cynomolgus PBMC; assay type: cell-based; conditions: across donors tested
Procedure: Thawed human or freshly isolated monkey PBMCs (50,000 cells/well) were incubated with 3-fold (human, concentration range: 5E-10M to 2.82E-15M; cynomolgus, concentration range: 1E-09M to 4.57E-13M) serial dilutions of STEAP2×CD3 bispecifics or isotype control in complete medium (RPMI supplemented with 10% FBS, 100 U/mL penicillin, 100 μg/mL streptomycin, 292 μg/mL L-glutamine) and a fixed concentration (human: 200 ng/mL, cyno: 500 ng/mL) of a commercial anti-CD28 antibody (Biolegend, Catalog #302914) in white flat bottom 96-well plates for 72 hours at 37° C. Isolated monkey PBMCs were from two donors (identified as mk8781M or mk9381M). Following incubation, CellTiter Glo® (Promega, Cat #7573) was added and luminescence, as readout for cell viability, was measured using a VICTOR X5 multi-label plate reader. Cell titer was calculated by dividing the luminescence of stimulated cells by the baseline luminescence of unstimulated cells.

cynomolgus T cells = assay: FACS binding titration of STEAP2xCD3 bispecifics on cynomolgus T cells; conditions: 66.6 nM to 0.001 nM, 30 minutes at 4° C.
Procedure: FACS Binding Titration on Jurkat Cells, PC3_STEAP2/1 Cells and cynomolgus T Cells: Flow cytometric analysis was utilized to determine binding of STEAP2×CD3 bispecific antibodies to Jurkat, PC3_STEAP2/1 chimeric and cynomolgus T cells, followed by detection with a phycoerythrin (PE)-labeled anti-human IgG antibody. Briefly, 2×10^5 cells/well were incubated for 30 minutes at 4° C. with a serial dilution of STEAP2×CD3 bispecific antibodies or control antibody (a human IgG1 antibody that binds a feline antigen with no cross-reactivity to STEAP2 or human or cynomolgus CD3) ranging from 66.6 nM to 0.001 nM. After incubation, the cells were washed twice with cold PBS containing 1% filtered FBS and a PE-conjugated anti-human secondary antibody was added to the cells and incubated for an additional 30 minutes. Wells containing no antibody or secondary antibody only were used as a control. After incubation, cells were washed, re-suspended in 200 μL cold PBS containing 1% filtered FBS and analyzed by flow cytometry on a BD FACS Canto II.

[1] = system: FADU cells (STEAP2 negative); assay: FACS binding to STEAP2-negative FADU cells; conditions: human-Fc antibodies
Procedure: (§1) The ability of anti-STEAP2 antibodies to selectively bind to human six-transmembrane epithelial antigen of prostate 2 (STEAP2) endogenously expressing cell lines was determined via FACS analysis.
(§2) Briefly, 1×10^5 cells were incubated with 10 μg/ml of anti STEAP2 antibodies, or isotype control antibodies for 30 min on ice in antibody dilution buffer. Following one wash with antibody dilution buffer, cells were incubated with 10 μg/ml of PE conjugated anti-human or anti mouse Fc secondary antibodies for 30 min on ice. Following one additional wash, samples were incubated with Cytofix (1% formaldehyde) for 20 minutes. After one final wash, samples were filtered through a Pall 96 well filtration block, run on a Hypercyt® cytometer and analyzed in ForeCyt™ (IntelliCyt, Albuquerque, N. Mex.). Mean fluorescence intensities (MFI) were expressed as fold change above unstained levels (background). The average fold above background at antibody concentrations of 100-300 nM were determined. For cell binding EC50 determinations, mAb concentrations ranged from 300 nM to […] and EC50 values were determined from a four-parameter logistic equation over a 12-point response curve (GraphPad Prism).

[2] = system: C4-2 cells (high-STEAP2 expressing); assay: Internalization and total binding on C4-2 cells (imaging, qualitative score); assay type: cell-based, human; set-up: key: − (no internalization or binding); +(weak internalization or binding); ++(moderate internalization or binding); +++(robust internalization or binding); conditions: 10 μg/ml antibody
Procedure: Briefly, 20,000 C4-2 cells were seeded in PDL coated 96 well plates. The next day, cells were incubated with anti-human STEAP2 antibodies (10 μg/ml) for 30 min on ice followed by two PBS washes. Cells were then incubated with alexa488-conjugated anti-hFc Fab secondary antibody for 30 minutes on ice, followed by two additional PBS washes. Antibodies were allowed to internalize for 1 h at 37° C. in internalization buffer (PBS+2% FBS) or were maintained at 4° C. Cells were fixed in 4% formaldehyde, nuclei were stained with DRAQ5 (Cell signaling), and images were acquired on the ImageXpress micro XL (Molecular Devices).
A qualitative visual assessment of the total binding intensity and the intensity of antibodies that had internalized into vesicles was performed and scored according to the following criteria: − (no internalization or binding), +(weak internalization or binding), ++(moderate internalization or binding) and +++(robust internalization or binding).

[3] = system: Raji cells (STEAP2 negative); assay: FACS binding to STEAP2-negative Raji cells; conditions: human-Fc antibodies
Procedure: as §1, §2

| Molecule | Cynomolgus PBMC proliferation activity (in words) (monkey PBMCs) | EC50 (cynomolgus T cells) | FADU Avg F.A.B (Fold Above Background) [1] | Internalization (37° C., 1 h) Qualitative Score [2] | Total Binding (4° C.) Qualitative Score [2] | Raji Avg F.A.B (Fold Above Background) [3] |
| --- | --- | --- | --- | --- | --- | --- |
| BSSTEAP2/CD3-008: STEAP2×CD3 bispecific: anti-STEAP2 H1H11163 (SEQ 266), anti-CD3 H1H7208P (SEQ 1490), common LCVR SEQ 274 (antibody, V domains shown) VH 1: QVQLQQSGPGLVKPSQALSLTCAISGDSVSSNSAAWNWIRQSPSRGLEWLGRTYYRSKWYNDYAVSVKSRITINPDTSKNHFSLHLNSMTPEDTAVYYCARARIVVVPGPEVYYYYYYDMDVWGQGTTVTVSS VH 2: QVQLVESGGGLVHPGRSLRLSCAASGFKFDDYTMHWVRQAPGKGLEWVSDISWNSGSKGYADSVKGRFTISRDNAKDSLYLQMDSLRAADTAFYYCAKDKSGYGHFYYYAMDVWGQGTTVTVSS VL: [about 100 residues not shown]PITFGQGTRLEIK | donor dependent | 16.6 nM |  |  |  |  |
| H1H11163N: human-Fc anti-STEAP2 antibody, HCVR/LCVR SEQ ID NOs 266/274 (antibody, V domains shown, human Fc) VH: QVQLQQSGPGLVKPSQALSLTCAISGDSVSSNSAAWNWIRQSPSRGLEWLGRTYYRSKWYNDYAVSVKSRITINPDTSKNHFSLHLNSMTPEDTAVYYCARARIVVVPGPEVYYYYYYDMDVWGQGTTVTVSS VL: [about 100 residues not shown]PITFGQGTRLEIK |  |  | 2 fold | ++ | ++ | 2 fold |
| H1H11243N: anti-STEAP2 antibody, HCVR/LCVR SEQ ID NOs 2/10 (antibody, V domains shown) VH: QVQLQQSGPGLVKPSQTLSLTCAISGDSVSSNSAAWNWIRQSPSRGLEWLGRTYYRSKWYNDYAVSVKSRITINPDTSKNQFSLHLNSVTPEDTAVYYCARAGIVVVPGPDIYYYYYYGMDVWGQGTTVTVSS VL: [about 100 residues not shown]PITFGQGTRLEIK |  |  | 2 fold |  |  | 2 fold |
| H1H11878P: anti-STEAP2 antibody, HCVR/LCVR SEQ ID NOs 18/26 (antibody, V domains shown) VH: [about 100 residues not shown]IGMVVSGANYYYYYGMDVWGQGTTVTVSS VL: AIQMTQSPSSLSAYVGDRVIITCRASQGIRNDLGWYQQKPGKAPKLLIYAASSLQSGVPSRFSGSRSGTVFTLTISSLQPEDFATYYCLQDYNYPWTFGQGTKVEIK |  |  |  | + | + |  |
| H1M11243N: anti-STEAP2 hybridoma-generated antibody, mouse IgG1 Fc; variable regions presumably as H1H11243N (antibody, V domains shown) VH: QVQLQQSGPGLVKPSQTLSLTCAISGDSVSSNSAAWNWIRQSPSRGLEWLGRTYYRSKWYNDYAVSVKSRITINPDTSKNQFSLHLNSVTPEDTAVYYCARAGIVVVPGPDIYYYYYYGMDVWGQGTTVTVSS VL: [about 100 residues not shown]PITFGQGTRLEIK |  |  |  | + | + |  |
| H2M11163N: anti-STEAP2 antibody, mouse IgG2 Fc, HCVR/LCVR SEQ ID NOs 266/274 (antibody, V domains shown, mouse IgG2 Fc) VH: QVQLQQSGPGLVKPSQALSLTCAISGDSVSSNSAAWNWIRQSPSRGLEWLGRTYYRSKWYNDYAVSVKSRITINPDTSKNHFSLHLNSMTPEDTAVYYCARARIVVVPGPEVYYYYYYDMDVWGQGTTVTVSS VL: [about 100 residues not shown]PITFGQGTRLEIK |  |  |  | ++ | ++ |  |

From US10772972B2, “Anti-STEAP2 antibody drug conjugates, and compositions and uses thereof” (Regeneron Pharmaceuticals, Inc., priority 2016, dated 2020)
